Assay results as given in patent US5538946A, “Hirudin derivatives with delayed action” (Hoechst Aktiengesellschaft, priority 1988, dated 1996).

How the values were obtained:
[1] = hirudin, literature value (Markwardt et al. Pharmazie 43 (1988) 202); cited from earlier work
[2] = i.v. administration to Wistar rats, plasma concentration read off by thrombin inhibition (coagulation time) assay; type: in vivo; conditions: comparison experiment
Method: Female and male Wistar rats with a body weight of about 300 g are anesthetized with ethylurethane (1.5 g/kg i.p.). 1000 AT-U/kg of a hirudin derivative or authentic `Leu-Thr-hirudin`, which has been dissolved in physiological saline, are administered i.v. to the rats. A catheter is implanted in the carotid of the animals for blood sampling. Blood is taken from the animals and treated with citrate for the determination of anti-thrombin activity. 0.1 ml of the blood treated in this way is mixed with 0.2 ml of Tris/HCl buffer (0.1 mol/1; pH 7.4) and preincubated at 37° C. After addition of 0.1 ml of a thrombin solution (10 NIH-U/ml) the coagulation time is determined using a Schnitger and Gross coagulometer. In parallel with the experiment a calibration plot is constructed using reference plasma, from which the particular plasma hirudin or plasma hirudin derivative concentration is read off.
To reduce the Schiff's base which has formed, 75 mg of NaBH4 are added to the 75 ml of incubated solution, and the solution is stirred at 4° C. for 40 minutes and subsequently dialyzed against water at 4° C. for 24 hours (membrane: Servapor Dialysis Tubing; diameter 10mm, from Serra Feinbiochemica GmbH Heidelberg). This is followed by gel filtration on ®Sephadex G-25 and lyophilization. […] This entails measurement of the inhibition of the thrombin-catalyzed cleavage of chromozyme TH. […]

B1: hirudin: isohirudin ('Leu-Thr-hirudin') described in German Patent Application 3,805,5406, synthesized in yeast cells; comparison substance (protein, UniProt P01050 1-65, looked up, variant V1L V2T)
Hirudin variant-1: LTYTDCTESGQNLCLCEGSNVCGQGNKCILGSDGEKNQCVTGEGTPKPQSHNDGDFEEIPEEYLQ
modifications: recombinant, yeast-expressed
notes: comparison substance
Which half-life [1] does the source give for B1 here?
Its half-life is 1 to 2 h.

And the “dose needed for a detectable plasma concentration after 1 hour, times higher than dextran-hirudin” value [2]?
Its value is “approximately 10 times”.
